Measurements published in the antibiotic and cytotoxicity screens of Wong et al. (2023).
The list shows a part of the results.

Columns and labels:
[1] = system: HSkMC (human skeletal muscle cells); experiment: cytotoxicity call (relative viability < 0.9); details: 10 µM
[2] = system: HepG2; experiment: cytotoxicity call (relative viability < 0.9); details: 10 µM
[3] = system: S. aureus RN4220; experiment: growth inhibition call (relative growth <= 0.2); details: 50 µM

COc1ccc(CN(C)C[C@@H]2Oc3ccc(NS(=O)(=O)c4c(C)noc4C)cc3CC(=O)N([C@@H](C)CO)C[C@@H]2C)cc1
inactive: cytotoxicity call [1] | cytotoxicity call [2] | growth inhibition call [3]

COc1ccc(CN(C)C[C@H]2Oc3ccc(NS(C)(=O)=O)cc3C(=O)N([C@H](C)CO)C[C@@H]2C)cc1
inactive: cytotoxicity call [1] | cytotoxicity call [2] | growth inhibition call [3]

COc1ccc(NC(=O)Nc2ccc3c(c2)C(=O)N([C@H](C)CO)C[C@@H](C)[C@@H](CN(C)S(=O)(=O)c2ccc(OC)cc2)OCCCC[C@H](C)O3)cc1
inactive: cytotoxicity call [1] | cytotoxicity call [2] | growth inhibition call [3]

O=C(/C=C/c1ccc(O)c(O)c1)O[C@@H]1C[C@](OC(=O)/C=C/c2ccc(O)c(O)c2)(C(=O)O)C[C@@H](OC(=O)/C=C/c2ccc(O)c(O)c2)[C@H]1O
inactive: cytotoxicity call [1] | cytotoxicity call [2] | growth inhibition call [3]

N=C(NO)c1ccccc1N
inactive: cytotoxicity call [1] | cytotoxicity call [2] | growth inhibition call [3]

CN1C(=O)CC(C)(c2ccccc2)C1=O (stereo not given)
inactive: cytotoxicity call [1] | cytotoxicity call [2] | growth inhibition call [3]

Cc1noc(C)c1S(=O)(=O)Nc1ccc2c(c1)CC(=O)N([C@@H](C)CO)C[C@@H](C)[C@H](CN(C)S(C)(=O)=O)O2
inactive: cytotoxicity call [1] | cytotoxicity call [2] | growth inhibition call [3]

O=C1OCc2cc(-n3cnnn3)ccc21
inactive: cytotoxicity call [1] | cytotoxicity call [2] | growth inhibition call [3]

COC(=O)C[C@H]1CC[C@@H]2[C@H](COC[C@H](O)CN2S(=O)(=O)c2ccccc2C)O1
inactive: cytotoxicity call [1] | cytotoxicity call [2] | growth inhibition call [3]

C[C@@H]1CN([C@@H](C)CO)C(=O)c2cc(NC(=O)Nc3cccc4ccccc34)ccc2O[C@@H](C)CCCCO[C@@H]1CN(C)C(=O)CCCN(C)C
inactive: cytotoxicity call [1] | cytotoxicity call [2] | growth inhibition call [3]

Cc1noc(C)c1NC(=O)N(C)C[C@H]1Oc2ccc(NC(=O)Cn3cnnn3)cc2CC(=O)N([C@H](C)CO)C[C@@H]1C
inactive: cytotoxicity call [1] | cytotoxicity call [2] | growth inhibition call [3]

CCS(=O)(=O)Nc1ccc2c(c1)C(=O)N(C)C[C@@H](OC)[C@@H](C)CN(C(=O)c1ccc3c(c1)OCO3)[C@H](C)CO2
inactive: cytotoxicity call [1] | cytotoxicity call [2] | growth inhibition call [3]

C[C@@H]1CN([C@@H](C)CO)C(=O)c2cc(NC(=O)Nc3ccc(F)cc3)ccc2O[C@@H]1CN(C)S(C)(=O)=O
inactive: cytotoxicity call [1] | cytotoxicity call [2] | growth inhibition call [3]

COCC#Cc1cnc2c(c1)C(=O)N([C@H](C)CO)C[C@@H](C)[C@H](CN(C)C(=O)c1cnccn1)O2
inactive: cytotoxicity call [1] | cytotoxicity call [2] | growth inhibition call [3]

O=C(CN1CCOCC1)N[C@H]1CC[C@@H](CCNC(=O)C2CCCCC2)O[C@@H]1CO
inactive: cytotoxicity call [1] | cytotoxicity call [2] | growth inhibition call [3]

C[C@H]1CN([C@@H](C)CO)C(=O)c2cc(NS(=O)(=O)c3ccccc3)ccc2O[C@H]1CN(C)S(=O)(=O)c1cccs1
inactive: cytotoxicity call [1] | cytotoxicity call [2] | growth inhibition call [3]

CCc1nc2ccc(C(=O)NCc3ccccc3OC)cn2c1N(CC)Cc1cccc(Br)c1
inactive: cytotoxicity call [1] | cytotoxicity call [2] | growth inhibition call [3]

CC(C)NC(=O)Nc1ccc2c(c1)C(=O)N(C)[C@@H]1CC[C@@H](CC(=O)NCc3ccc(F)cc3)O[C@H]1CO2
inactive: cytotoxicity call [1] | cytotoxicity call [2] | growth inhibition call [3]

C[C@H](CO)N1C[C@H](C)[C@H](CN(C)S(=O)(=O)c2cn(C)cn2)Oc2ccc(NC(=O)NC3CCCCC3)cc2C1=O
inactive: cytotoxicity call [1] | cytotoxicity call [2] | growth inhibition call [3]

C[C@@H]1CCCCO[C@@H](CN(C)C(=O)Cc2ccccc2)[C@@H](C)CN([C@H](C)CO)C(=O)c2cc(NS(=O)(=O)c3ccc(Cl)cc3)ccc2O1
inactive: cytotoxicity call [1] | cytotoxicity call [2] | growth inhibition call [3]

Br.Cn1c(=O)c2c(ncn2C)n(C)c1=O
inactive: cytotoxicity call [1] | cytotoxicity call [2] | growth inhibition call [3]

C[C@H]1CCCCO[C@@H](CN(C)S(=O)(=O)c2ccccc2)[C@@H](C)CN([C@@H](C)CO)C(=O)c2cc(NC(=O)c3ccccc3)ccc2O1
inactive: cytotoxicity call [1] | cytotoxicity call [2] | growth inhibition call [3]

Cc1noc(C)c1NC(=O)Nc1ccc2c(c1)CC(=O)N([C@H](C)CO)C[C@H](C)[C@H](CN(C)C(=O)Nc1ccc(C(F)(F)F)cc1)O2
inactive: cytotoxicity call [1] | cytotoxicity call [2] | growth inhibition call [3]

C[C@@H]1CN([C@@H](C)CO)S(=O)(=O)c2ccc(Br)cc2O[C@H]1CN(C)CC1CCOCC1
inactive: cytotoxicity call [1] | cytotoxicity call [2] | growth inhibition call [3]

C[C@@H]1CN([C@H](C)CO)C(=O)c2cc(NC(=O)CCC(F)(F)F)ccc2O[C@@H](C)CCCCO[C@H]1CN(C)C(=O)C1CCCCC1
inactive: cytotoxicity call [1] | cytotoxicity call [2] | growth inhibition call [3]

C[C@H](CO)N1C[C@H](C)[C@H](CN(C)Cc2ccc(C(=O)O)cc2)Oc2c(NC(=O)c3cnccn3)cccc2C1=O
inactive: cytotoxicity call [1] | cytotoxicity call [2] | growth inhibition call [3]

C[C@@]1(C(=O)O)CCCC[C@@H]1N
inactive: cytotoxicity call [1] | cytotoxicity call [2] | growth inhibition call [3]

NC(=O)c1ccnc(N2CCN(C(=O)C3CCOCC3)C[C@@H](O)C2)c1
inactive: cytotoxicity call [1] | cytotoxicity call [2] | growth inhibition call [3]

Cc1ccc(S(=O)(=O)Nc2ccc3c(c2)C(=O)N([C@H](C)CO)C[C@@H](C)[C@@H](CN(C)CC2CC2)O3)cc1
inactive: cytotoxicity call [1] | cytotoxicity call [2] | growth inhibition call [3]

O=C1O[C@@H](c2ccccc2)[C@@H](c2ccccc2)N2[C@@H](c3ccc(OCCO)cc3)[C@]3(C(=O)Nc4ccc(C#CC5=CCCCC5)cc43)[C@@H](C(=O)N3CCN(c4ncccn4)CC3)[C@H]12
inactive: cytotoxicity call [1] | cytotoxicity call [2] | growth inhibition call [3]

C[C@H]1CCCCO[C@H](CN(C)C(=O)Nc2ccc(F)cc2)[C@@H](C)CN([C@@H](C)CO)C(=O)c2cc(NC(=O)Nc3cccc4ccccc34)ccc2O1
inactive: cytotoxicity call [1] | cytotoxicity call [2] | growth inhibition call [3]

C[C@H]1CCCCO[C@@H](CN(C)Cc2ccc(C(=O)O)cc2)[C@@H](C)CN([C@@H](C)CO)C(=O)c2cc(NC(=O)Nc3ccccc3)ccc2O1
inactive: cytotoxicity call [1] | cytotoxicity call [2] | growth inhibition call [3]

C[C@H]1CN([C@@H](C)CO)C(=O)c2cc(C#CC3(O)CCCC3)cnc2O[C@H]1CN(C)C(=O)Cc1ccncc1
inactive: cytotoxicity call [1] | cytotoxicity call [2] | growth inhibition call [3]

Cc1noc(C)c1S(=O)(=O)N(C)C[C@H]1OCCCC[C@@H](C)Oc2ccc(NC(=O)Nc3ccccc3)cc2C(=O)N([C@@H](C)CO)C[C@H]1C
inactive: cytotoxicity call [1] | cytotoxicity call [2] | growth inhibition call [3]

C[C@@H]1CN([C@@H](C)CO)C(=O)c2cc(NC(=O)C3CC3)ccc2O[C@H]1CN(C)S(=O)(=O)c1cn(C)cn1
inactive: cytotoxicity call [1] | cytotoxicity call [2] | growth inhibition call [3]

C[C@H](CO)N1C[C@H](C)[C@@H](CN(C)C(=O)CCC(F)(F)F)OCCCC[C@H](C)Oc2ccc(NC(=O)NC3CCCCC3)cc2C1=O
inactive: cytotoxicity call [1] | cytotoxicity call [2] | growth inhibition call [3]

CCCNC(=O)Nc1ccc2c(c1)OC[C@@H](C)N(Cc1ccc(-c3ccccn3)cc1)C[C@@H](C)[C@H](OC)CN(C)C2=O
inactive: cytotoxicity call [1] | cytotoxicity call [2] | growth inhibition call [3]

COc1cccc(CN(C)C[C@H]2OCc3ccccc3-c3c(n(C)c4ccccc34)C(=O)N([C@H](C)CO)C[C@@H]2C)c1
inactive: cytotoxicity call [1] | cytotoxicity call [2] | growth inhibition call [3]

C[C@H]1CCCCO[C@H](CN(C)Cc2ccc(C(=O)O)cc2)[C@@H](C)CN([C@@H](C)CO)C(=O)c2cc(NC(=O)Nc3cccc4ccccc34)ccc2O1
inactive: cytotoxicity call [1] | cytotoxicity call [2] | growth inhibition call [3]

CC(C)CC#Cc1ccc2c(c1)O[C@@H](CN(C)C(=O)Cc1ccccn1)[C@H](C)CN([C@H](C)CO)S2(=O)=O
inactive: cytotoxicity call [1] | cytotoxicity call [2] | growth inhibition call [3]

Cc1ccc(S(=O)(=O)N(C)C[C@H]2Oc3ccc(NC(=O)CCCN(C)C)cc3CC(=O)N([C@@H](C)CO)C[C@H]2C)cc1
inactive: cytotoxicity call [1] | cytotoxicity call [2] | growth inhibition call [3]

Cc1noc(C)c1NC(=O)Nc1ccc2c(c1)CC(=O)N([C@H](C)CO)C[C@@H](C)[C@@H](CN(C)Cc1ccc(C(=O)Nc3ccccc3N)cc1)O2
inactive: cytotoxicity call [1] | cytotoxicity call [2] | growth inhibition call [3]

C[C@@H]1CN([C@@H](C)CO)C(=O)c2cc(C#Cc3ccc(F)cc3)cnc2O[C@H]1CN(C)CC1CCOCC1
inactive: cytotoxicity call [1] | cytotoxicity call [2] | growth inhibition call [3]

Cc1noc(C)c1S(=O)(=O)Nc1cccc2c1O[C@@H](CN(C)S(=O)(=O)c1ccccc1)[C@@H](C)CN([C@H](C)CO)C2=O
inactive: cytotoxicity call [1] | cytotoxicity call [2] | growth inhibition call [3]

CC(C)NC(=O)Nc1cccc2c1O[C@H](CN(C)C(=O)NC1CCCCC1)[C@H](C)CN([C@H](C)CO)C2=O
inactive: cytotoxicity call [1] | cytotoxicity call [2] | growth inhibition call [3]

Cc1ccccc1S(=O)(=O)N1C[C@H](O)COC[C@@H]2O[C@H](CC(=O)N3CCOCC3)CC[C@H]21
inactive: cytotoxicity call [1] | cytotoxicity call [2] | growth inhibition call [3]

Cc1ccc(S[C@]2(C(=O)NCCN3CCOCC3)CC(=O)N(Cc3ccccc3Cl)[C@@H]2c2ccc(CO)cc2I)cc1
inactive: cytotoxicity call [1] | cytotoxicity call [2] | growth inhibition call [3]

CN1CCN(C(=O)C[C@@H]2CC[C@@H]3[C@@H](COc4ccc(NC(=O)c5cccs5)cc4C(=O)N3C)O2)CC1
inactive: cytotoxicity call [1] | cytotoxicity call [2] | growth inhibition call [3]

COc1ccc(NC(=O)N(C)C[C@@H]2Oc3c(NC(=O)C4CCOCC4)cccc3C(=O)N([C@@H](C)CO)C[C@H]2C)cc1
inactive: cytotoxicity call [1] | cytotoxicity call [2] | growth inhibition call [3]

O=C(O)C[C@@H]1CC[C@H]2[C@@H](COC[C@H](O)CN2S(=O)(=O)c2ccc(F)cc2)O1
inactive: cytotoxicity call [1] | cytotoxicity call [2] | growth inhibition call [3]

CN1C[C@@H](O)COC[C@@H]2O[C@H](CC(=O)N3CCN(c4ccccc4)CC3)CC[C@H]21
inactive: cytotoxicity call [1] | cytotoxicity call [2] | growth inhibition call [3]

C/C=C/c1ccc2c(c1)O[C@H](CN(C)S(=O)(=O)c1ccccc1OC)[C@H](C)CN([C@H](C)CO)S2(=O)=O
inactive: cytotoxicity call [1] | cytotoxicity call [2] | growth inhibition call [3]

COc1ccc(NC(=O)Nc2cccc3c2O[C@@H](CN(C)Cc2ccc(Cl)c(Cl)c2)[C@H](C)CN([C@H](C)CO)C3=O)cc1
inactive: cytotoxicity call [1] | cytotoxicity call [2] | growth inhibition call [3]

C[C@@H]1CN([C@@H](C)CO)C(=O)Cc2cc(N(C)C)ccc2O[C@H]1CN(C)S(=O)(=O)c1ccc(F)cc1
inactive: cytotoxicity call [1] | cytotoxicity call [2] | growth inhibition call [3]

C[C@@H]1CN([C@@H](C)CO)C(=O)c2cc(C#CC3(O)CCCC3)cnc2O[C@@H]1CN(C)C(=O)Cc1ccccc1
inactive: cytotoxicity call [1] | cytotoxicity call [2] | growth inhibition call [3]
